PubChem BioAssay AID463173 (ICCB-Longwood Screening Facility, Harvard Medical School, 2010)
In all, about 52,000 compounds went through this assay and about 1,700 (3.3%) were called active. Rule as the data show it: active = survival mostly below about 52% (no sharp cut-off); inactive = mostly above about 56%. The list shows a part of the results.

Tested on: Wild type
Test: S. aureus survival, RN4220 and DeltatarO strains – OD600, teichoic acid synthesis inhibitors, primary screen (AID 463173)
Settings: S. aureus RN4220 wild type/DeltatarO growth, OD600, 18 h, stronger effect = lower value, screened at 18.75 µg/mL (by protocol)

SMILES | survival
CCOC(=O)c1ccc(Nc2cc(-c3ccccc3)nc(C)n2)cc1 | inactive: 83%
COc1ccc(-n2nc(C(=O)NCCc3cccc(C)c3)c3c4ccccc4n(C)c3c2=O)cc1Cl | inactive: 78%
O=C(c1c[nH]c2c(F)cccc2c1=O)N1CCNCC1 | inactive: 94%
CCOc1ccc2[nH]c(=O)c(CN(C(=S)NCc3ccco3)C3CCCC3)cc2c1 | inactive: 133%
Cc1cc(C)cc(N(CC(=O)NCc2ccccc2Cl)S(=O)(=O)c2c(C)noc2C)c1 | inactive: 81%
O=C(Cn1nc(-c2ccccc2)ccc1=O)Nc1ccc(N2CCN(C(=O)c3ccccc3)CC2)cc1 | inactive: 97%
CCc1nn2c(=O)cc(COC(=O)C(c3ccccc3)c3ccccc3)nc2s1 | inactive: 90%
Cc1cccc(-c2nc(SCC(=O)Nc3ccc4c(c3)OCCO4)c(-c3ccccc3)[nH]2)c1 | inactive: 75%
CCOC(=O)Cn1c(=O)n(-c2ccccc2OC)c2nc(-c3ccccc3C)nc(C(N)=O)c21 | inactive: 63%
O=C(COc1ccccc1)Nc1ccccc1C(=O)OCc1cc(=O)n2nc(C3CC3)sc2n1 | inactive: 71%
O=C(O)c1cccc(N2C(=O)c3cccnc3C2=O)c1 | inactive: 90%
CCOCCc1nn2c(=O)cc(COC(=O)C(CC)c3ccccc3)nc2s1 (centres undefined) | active: 14%
Cc1nnc(N2CCN(c3ccccc3F)CC2)c2c1nnn2Cc1ccccc1 | inactive: 87%
Cc1cccc(C(=O)Nc2ccccc2SCc2cc(=O)c3cccc(C)c3[nH]2)c1 | inactive: 82%
CCOc1ccc(NC(=O)CC2C(=O)N(c3cccc(C)c3)C(=O)N2Cc2cccnc2)cc1 (centres undefined) | inactive: 47%
CCOc1ccc(NC(=O)Cn2c(=O)n(CCC(=O)NCCc3ccccc3)c(=O)c3ccccc32)cc1 | inactive: 66%
Cc1ccc2occ(-c3cc(-c4ccc(Cl)cc4)nc4c3COc3ccccc3-4)c(=O)c2c1 | inactive: 86%
Cc1ccc(N(C)C(=O)C2CCCN(c3ncnc4c3nc3n4CCCCC3)C2)cc1C (centres undefined) | inactive: 127%
Cc1ccc(Cn2c(=O)n(Cc3ccccc3Cl)c(=O)c3ccccc32)cc1 | inactive: 56%
CCCCc1nn2c(=O)cc(COC(=O)c3ccc(NC(=O)C4CCCCC4)cc3)nc2s1 | inactive: 77%
CCCn1cc(S(=O)(=O)c2ccc(CC)cc2)c(=O)c2ccccc21 | inactive: 86%
Cc1cccc(N2CCN(C3(c4ccccc4)C(=O)c4ccccc4C3=O)CC2C)c1 (centres undefined) | inactive: 141%
Cc1ccc(-c2nc3cc(Cl)ccc3o2)cc1NC(=O)COc1ccc(F)cc1 | inactive: 90%
Cc1ccc(C(c2sc3nc(-c4ccco4)nn3c2O)N2CCN(Cc3ccccc3)CC2)cc1 (centres undefined) | inactive: 121%
COc1ccccc1CNC(=O)c1cnn2c(C)c(Cc3ccc(F)cc3)c(C)nc12 | inactive: 88%
CCOC(=O)c1ccc(NC(=O)CN2C(=O)COc3ccc(Cl)cc32)cc1 | inactive: 72%
CC1=C(C(=O)OC2CCCC2)C(c2ccccc2Cl)CC(=O)N1 (centres undefined) | inactive: 76%

SMILES | survival
Cc1ccc(Cl)cc1N1CCN(C(=O)C2CCN(Cc3nc(-c4ccc(Cl)cc4)oc3C)CC2)CC1 | active: -4%
CC(C)(C)OC(=O)N1CCC(c2c(C(=O)NC3CCCCC3)cnn2-c2cccc(Cl)c2)CC1 | inactive: 66%
Cn1nccc1C(=O)NCc1ccc2c(c1)CCN2C(=O)c1ccccc1 | inactive: 57%
CCOc1ccccc1NC(=O)Cn1nnc(C(=O)Nc2ccc(C)c(C)c2)c1N | inactive: 59%
Cc1c(C(=O)N2CCC(C)CC2)c(S(=O)(=O)N2CCN(c3ccc(Cl)cc3)CC2)c(C)n1C | inactive: 74%
COc1ccc(N2CCN(C(=O)c3oc4ccccc4c3NC(=O)c3ccccc3OC)CC2)cc1 | inactive: 129%
COc1ccc(-c2nc3sc(CCNC(=O)C(=O)Nc4c(C)cccc4C)c(C)n3n2)cc1 | inactive: 112%
CC1CCCN(CCCNC(=O)CN2C(=O)CSc3ccc(S(=O)(=O)N4CCOCC4)cc32)C1 (centres undefined) | inactive: 128%
Cc1cc(=O)[nH]c(SCC(=O)N(c2ccccc2)c2ccccc2)n1 | inactive: 103%
O=C(Cn1c(=O)oc2cc(S(=O)(=O)NC3CCCC3)ccc21)Nc1ccc(F)c(F)c1 | inactive: 70%
Cc1ccc(Cl)cc1N1CCN(S(=O)(=O)c2cc3[nH]c(=O)c(=O)[nH]c3cc2C)CC1 | inactive: 93%
COC(=O)c1cc2nc(C)cc(C(F)(F)F)n2n1 | inactive: 104%
CCC(Oc1ccccc1)C(=O)Nc1nccs1 (centres undefined) | inactive: 127%
CN1C(=O)Cc2cc(S(=O)(=O)NCCc3ccccc3)ccc21 | inactive: 124%
Cc1cccc(C)c1NC(=O)CS(=O)CC(=O)NC1CCCc2ccccc21 (centres undefined) | inactive: 107%
COc1ccc(NC(=O)C2CCCN2S(=O)(=O)c2ccc3nc(-c4ccccc4)[nH]c3c2)cc1 (centres undefined) | inactive: 78%
O=C(CCn1c(=O)c2cccn2c2cccnc21)N1CCN(c2cccc(Cl)c2)CC1 | inactive: 46%
Cc1cccc(-c2nc(SCC(=O)Nc3ccc4c(c3)OCO4)c(-c3ccccc3)[nH]2)c1 | inactive: 58%
COCCCNC(=O)Cn1cnc2sc(C)c(S(=O)(=O)N3CCN(c4ccccc4OC)CC3)c2c1=O | inactive: 76%
CCOC(=O)c1cc(-c2ccc(C)cc2)n(CCC(=O)Nc2ccc(OC)c(OC)c2)c1C | inactive: 71%
CCN1CCN(C(=O)c2ccc3c(c2)N(Cc2cccc(F)c2)C(=O)c2ccccc2S3)CC1 | inactive: 100%
COc1ccc(CCNC(=O)c2ccc3c(c2)N(Cc2ccc(Cl)cc2)CCS3)c(OC)c1 | inactive: 87%
CCCCCN1C(C(=O)c2ccccc2)=C(NC(=O)c2ccccc2Cl)c2ccccc2S1(=O)=O | inactive: 72%
CC(=O)c1ccc(N2CCN(S(=O)(=O)c3ccc(-c4cc(C)no4)s3)CC2)cc1 | active: -6%
Cc1cc(C)c(S(=O)(=O)n2cnc(C)c2)c(C)c1 | inactive: 74%
COc1ccc2[nH]c(=O)c(CN(CCCN3CCOCC3)C(=O)NCc3ccccc3)cc2c1 | inactive: 101%
COC(=O)c1c(NC(=O)COc2cc(C)ccc2C(C)C)sc2c1CCC(C)C2 (centres undefined) | inactive: 66%
